Our source for the IC50 values is patent publication US9550792B2, “Polycyclic substituted pyrazole kinase activity inhibitors and use thereof” (priority 2013, dated 2017).

For this assay, the system named is large cell lung cancer cell line H460. Put plainly: Anti-tumor activity in vitro, MTT method. Conditions: Homo sapiens, NCI-H460, 48 h, read-out: H460 (IC50/μM). The text has this: The inhibitory activities against various cancer cell lines, such as breast cancer cell line MDA231, stomach cancer cell line MGC803, stomach cancer cell line BSG823, leukemia cell line K562, breast cancer cell line MCF-7, resistant breast cancer cell line MCF-7, leukemia cell line NB4, liver cancer cell line HEPG2, umbilical cord vein endothelium cell line HUVEC, lung cancer cell line A549, colon cancer cell line HCT116, large cell lung cancer cell line H460, liver cancer cell line 7721, lung cancer cell line H1229 and the like are determined with MTT method.
MTT method: the dehydrogenase associated with NADP in the mitochondria of living cell is capable of reducing exogenous MTT into insoluble bluish violet crystal (Formazan), which is precipitated in the cell. […] DMSO or Triple liquid (10% SDS-5% isobutanol-0.01 mol/L HCl) is used to dissolve the crystal in the cell. The OD determined at 570 nm by a microplate reader can reflect the amount of the living cell indirectly.
Procedures: the tumor cells in logarithmic growth phase are plated on 96 well plates and incubated for 24 h, to which is added the sample for screening (as for suspended cells, the sample can be added directly). […] The crystal is dissolved with DMSO and the detection is performed on a microplate reader.

Regarding `O=C(NC1CCNCC1)c1[nH]ncc1NC(=O)c1c(Cl)cccc1Cl` [AT-7519, reference compound], the IC50 was determined as 5.63 µM.

As for `CN1CCN(Cc2ccc(NC(=O)c3n[nH]cc3Nc3ncnc4sccc34)cc2)CC1` [Compound I-1, 4-(4-thieno[2,3-d]pyrimidinylamino)-N-(4-((4-methyl-1-piperazinyl)methyl)phenyl)-1H-3-pyrazole carboxamide], the IC50 was determined as 2.72 µM.
